# From the supplement of paper PMC11417369
# ± gives the standard deviation of the averaged measurements. The list shows a part of the results.
# System: PfAP2-I AP2 domain 3 (GST-tagged)
# Assay: gcPBM binding intensity (ln(normalized median fluorescence intensity)); higher = stronger DNA binding
# Outline: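 DNA-binding domains from P. falciparum, fused to GST and produced in E. coli, were put on an Agilent 4 × 180k double-stranded probe array for 1 h in 1× PBS holding 1% milk, 0.2 mg/ml BSA, 0.5% salmon testes DNA and 0.03% Triton X-100. Probes were primer-extended, 36 bp long and drawn from intergenic genomic regions, with negative controls included. After Alexa488 anti-GST antibody detection and a 488 nm scan, binding intensity was set as the highest Masliner-normalised natural-log median intensity across replicate spots of either probe orientation.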
row,Sequence,gcPBM binding intensity (ln)
1,ATATATGAGCAAAAATATATAAGATAACACATAAAT [CACACA_negctrl_site167],7.76 ± 0.81
2,TCTCTATAAATAAATACATGCATATAATAAAGAATT [TGCATGCA_site710],7.83 ± 0.63
3,ATAAGATATGTATATACACACATTTATTTACATATA [CACACA_site3263],7.76 ± 0.54
4,GCATAAGAAATAAATAGTACACACATAGACACACAC [XGTACX_site3095],9.37 ± 0.28
5,TATATATATATATACACACACATATATATATATATA [CACACA_site1346],9.24 ± 0.51
6,CGCACAAAAATATACACACACACATCTATATTTATT [CACACA_site7675],8.02 ± 0.37
7,AAAACAAATGAGTACACACACATAAAAGTTGAAAAT [CACACA_site6238],8.02 ± 0.52
8,TACCCATATTAATATGTGCGCATATAAAAGTCAAAC,8.58 ± 0.44
9,ATATATATATCAACAACACACGATTAACTAAAAAAA [CACACA_site302],8.8 ± 0.19
10,TTTTTTTAAACTGAAAGTACTTATTCCAAGAAAATA [XGTACX_site50],7.64 ± 0.42
11,ATAATGACTAAATTTAAACACACAAGGGGAGTTTAC [CACACA_site8209],7.58 ± 0.8
12,AAAAAAAAAAATATATTATTTTACTTGTTTATTTTT [GTGCAC_negctrl_site435],7.26 ± 0.47
13,AATAATCAAATATTAAAAATTGTGCAAAAAAAAAAA [XGTACX_negctrl_site399],9.69 ± 0.16
14,TCGTACTTGTATTATGCACACATATAATTAAACATA [CACACA_site9089],10.2 ± 0.57
15,TATGAAAAAATATATACACACATAATAAAGGTATAT [CACACA_site3737],7.73 ± 0.59
16,TTTGTTTTAAATATTATACACACGTAAAAGTATAAT [CACACA_site7954],7.82 ± 0.39
17,TAATATTATATATAAACACACATACCCATGTAAATA [CACACA_site5170],7.7 ± 0.74
18,TTCAATAGTAAGTATACACACATATATATATATAAA [CACACA_site2687],7.82 ± 0.47
19,TAATTCGCAAAAGAAAGAAATTAAGAAAAAGAAAAA [XGTACX_negctrl_site614],7.38 ± 0.74
20,TTTCTTTTTTTTTTTTCATTGATCCATTTATGATTA [TGCATGCA_negctrl_site225],7.42 ± 0.56
21,TTATAGGTTCTATACATATATTTATATATGTACAGA [CACACA_negctrl_site60],7.38 ± 0.19
22,TTTTTAAAAATATACACACACAGATATTATAGATAT [CACACA_site6511],7.92 ± 0.7

row,Sequence,gcPBM binding intensity (ln)
1,CAAGCTATGTATTCTACACACACATACACCCATATA [CACACA_site9133],8.15 ± 0.71
2,TAAAAAAAATAAACGTGTACATAAAAATGAATATGT [XGTACX_site119],8.38 ± 0.71
3,TTAATATATTAAATCTTACACACTAAAAAATATGTA [CACACA_site307],7.47 ± 0.5
4,AGTATACATATATATACACACACACCGATATATATA [CACACA_site8357],8.05 ± 0.74
5,TATGCGTCTTGCCTTGCACACTTTTATGAAAAAAAA [CACACA_site5174],8.22 ± 0.35
6,GAAAATATTATAGCACCACACACTTATTTTATATAT [CACACA_site2265],10.5 ± 0.71
7,AACGTTAAAAAAAAAATATATATAAGGAGAAAGCAC [XGTACX_negctrl_site338],9.035 ± 0.007
8,ATATGTAAATAAATATGTACTCATTTATTATTTTAT [XGTACX_site8748],7.91 ± 0.22
9,CGTTATATATATAAAAGTACAAAAATTAAACATTCC [XGTACX_site4568],7.78 ± 0.57
10,ATATGTATATTTTTTTGTACGTATTTATGTGTGTGT [XGTACX_site2093],8.12 ± 0.13
11,ATATTTTATGTGTTGGTGCACATCTTTATTTAAACT [GTGCAC_site9736],10.2 ± 0.28
12,ATATATACAAGTATTTTTTTTTCAAACATTATTTTT [CACACA_negctrl_site1808],7.66 ± 0.61
13,ATATATATAATATAATGTACGTATAATAATATGAGA [XGTACX_site2282],8.1 ± 0.28
14,TAATAAATAAAATATGCACACAAATATAGGAAACAA [CACACA_site8820],8.83 ± 0.67
15,TAAAAGGTGTATATAATACACACGTGGGATTAGAAT [CACACA_site610],8.32 ± 0.94
16,ATATATATATATATATGTACATAATAATATATATTA [XGTACX_site111],9.38 ± 0.41
17,AAAATATTATAAATTTGTACTTATAAATATTGTATA [XGTACX_site8165],7.62 ± 0.3
18,ATATGTTATATGTAATGTACTTTTGATGTATATATT [XGTACX_site8615],7.67 ± 0.59
19,TATATAAAGCATTGTAGTACTACCAATATTTTTTTT [XGTACX_site3523],7.96 ± 0.2
20,AAAAAATATACATATACACACATATGTATATAGAAT [CACACA_site2170],7.51 ± 0.62
21,AAAATAAACAATGAACAATAAACAATGAACAATGAA [CACACA_negctrl_site1194],7.66 ± 0.63
22,ATATATTATATATATATATATATATATTATTATTGT [TGCATGCA_negctrl_site286],8.46 ± 0.24

row,Sequence,gcPBM binding intensity (ln)
1,TATGAATATTTGTATACATGCATATAGAAATCATAT [TGCATGCA_site533],7.77 ± 0.57
2,GCTTTAATCTGAAAGTGTACAGATAATATATTTATA [XGTACX_site2462],7.67 ± 0.35
3,TGCATTATTTACAAGGTGCGTTACAAATGTGTAACA [GTGCAC_site9442],11.3 ± 0.88
4,GATAAATGTATATATGCATGCACATATATTTATACA [TGCATGCA_site748],8.46 ± 0.54
5,TATTTGTAATATTATACACACATTATATATTACAAA [CACACA_site5804],7.75 ± 0.59
6,TATTTTGTATATAAATGTACAAGTATATATTTTTTC [XGTACX_site7855],7.49 ± 0.45
7,CGTAGCCACACTAACACACACAAATATACACAATCA [CACACA_site7379],7.84 ± 0.42
8,ATTTAAATAACGTATGTATATACATATATATATATA [TGCATGCA_negctrl_site207],9.21 ± 0.41
9,AATTAGATTATGCACACACACTTAAAAATAATAAAT [CACACA_site7015],10.4 ± 0.62
10,TTTTTTTTTTTCTTAGTGCGCGTGAAAAATATAAAA,8.62 ± 0.15
11,TTACTCAAACAAACAAAAAAAAAAAAAAAAAAAAAA [TGCATGCA_negctrl_site457],8.07 ± 1.1
12,ATATATAGAATGTGTACACACATATGTATTTATATA [CACACA_site810],8.02 ± 0.22
13,ATTTTTTATGGACAAAAGACCTCTGATGTAAATATA [CACACA_negctrl_site1081],7.72 ± 0.47
14,TACTATAACGCACATACACACAAAAAAAAAAAAAAA [CACACA_site8073],10.6 ± 0.57
15,TATATATATATTTTTGCATGTAATTTTTATGAGGAC [TGCATGCA_site884],9.03 ± 0.092
16,TTATACATGAAATATTGTACACATATATATATATAT [XGTACX_site4378],9.41 ± 0.56
17,ATATGGTGATATAGGTGTACATTTTGATGCTTATTT [XGTACX_site4283],7.96 ± 0.59
18,ATTCAAATTGTAGAAACACACAAAAACTTAACATAT [CACACA_site2617],7.76 ± 0.83
19,TAGTTAACAAATAATGCACACAAATGGATAAAATTA [CACACA_site9240],10.8 ± 0.76
20,CATATGATATGTTATACACACACGTATATATGAATT [CACACA_site3446],8.03 ± 0.21
21,AAGGGAAAATTAAGGTTGCACTAAAAATATATCTTT [GTGCAC_site9608],9.08 ± 0.2
22,ATGAACATACAATATACACACATATATATTTATATT [CACACA_site4609],7.8 ± 0.63

row,Sequence,gcPBM binding intensity (ln)
1,AAGAGAAATTATAACATGTGAAATGTATTATATATA [TGCATGCA_negctrl_site254],7.63 ± 0.45
2,ATTTATATATAATATACACACATATAATCCACATAT [CACACA_site699],8.23 ± 0.34
3,AAAAATAAAAAAATGACACACATATATATATATATA [CACACA_site2307],9.56 ± 0.38
4,TATCTCTTATTTTATTGTACTTAACTATGCTATAAT [XGTACX_site4904],7.98 ± 0.49
5,TAAGTATAATATTGATGTACATATAATAACTTGTAT [XGTACX_site417],7.82 ± 0.48
6,GAATAAATATTAAATGTGCACTTGAATAGATGTAAA,10.1 ± 0.16
7,CACGCGCCCGGACACACACACACACCCATATATATA [CACACA_site5251],8.61 ± 0.59
8,TTTTTCATCATATGTTGTACAATGTGTAGATATATT [XGTACX_site3195],8.25 ± 0.13
9,AGATACGATTATATGCGTTCAATATACCAAATAATT [TGCATGCA_negctrl_site501],7.65 ± 0.51
10,CTTTGTGTTAAAAGTAGTACACCAAAAATATGACTT [XGTACX_site622],8.2 ± 0.28
11,TTTTTTCTTTCTTTCAAACACACATTAATTTTATTC [CACACA_site2733],7.66 ± 0.56
12,TTTTTTTTTTTTTGGTGTACTTTTTTTAGAACGCAA [XGTACX_site4207],8.21 ± 0.57
13,AAAAATGAAAGGTGTACACATACAAACATAGAAAGA [CACACA_site5020],8.54 ± 0.79
14,AAAATTTATATAGGCACACAAATAAATTAATACATA [CACACA_site1418],7.91 ± 0.4
15,ATATTAGAAATATGAATAGAAAGAATATATAAGTAT [CACACA_negctrl_site682],7.96 ± 0.55
16,ATTCTACACCCACATACACACATATATATATATATA [CACACA_site3426],9.43 ± 0.6
17,TGTTCAAATTTATTCGATCTTTATATTTAATAAAAC [CACACA_negctrl_site781],7.37 ± 0.48
18,AGATACTTTCCTCAAACACACAAAACTATACAACAA [CACACA_site1474],7.85 ± 0.45
19,GTTAGCTCGTTCGGAGCACACACATATATATATATA [CACACA_site8595],9.47 ± 0.3
20,ATTCAGTTCTATAATACACACATATATTGACATTAT [CACACA_site7309],8.01 ± 0.52
21,ATATTCTTCTAAAGGCGTACATCTACATTTATGAAA [XGTACX_site2145],8.315 ± 0.021
22,TTACAACAGAATGGTATTTTTTTATTTTAAAGAAAA [TGCATGCA_negctrl_site230],7.34 ± 0.41
